Each structure is given as a SMILES string. Some of the results follow.

For the first experiment, the system named is HSkMC (human skeletal muscle cells). As to the kind of experiment: cytotoxicity call (relative viability < 0.9). The note with it: 10 µM.
On to `Cc1ccc(S(=O)(=O)N(C)C[C@H]2Oc3c(NC(=O)Nc4ccc(C(F)(F)F)cc4)cccc3C(=O)N([C@@H](C)CO)C[C@@H]2C)cc1`, for which the cytotoxicity call was “inactive”.

On to `C=CCOC(=O)[C@@H]1[C@H]2C(=O)O[C@H](c3ccccc3)[C@H](c3ccccc3)N2[C@H](c2ccc(OCCOC(=O)[C@@H]3C[C@@H]4C(=O)N[C@@H](CCCCNC(C)=O)C(=O)N4[C@@H]3c3ccc(O)cc3)cc2)[C@@]12C(=O)Nc1ccc(I)cc12`, for which the cytotoxicity call was “inactive”.

As to `O=C(NC1CCC1)[C@H]1[C@H](CO)[C@H]2Cn3c(cccc3=O)[C@H]2N1CC1CCOCC1`, the cytotoxicity call was “inactive”.

As to `C[C@@H]1CN([C@H](C)CO)C(=O)c2cc(NS(=O)(=O)c3ccc(Cl)cc3)ccc2O[C@@H]1CN(C)Cc1ccc(Cl)c(Cl)c1`, the cytotoxicity call was “active”.

With `O=C(C[C@@H]1C[C@@H]2c3cc(NC(=O)NC4CCCC4)ccc3O[C@@H]2[C@H](CO)O1)NCc1ccc(-c2ccccc2)cc1`, the cytotoxicity call was “inactive”.

For `CN1CCC(=C2c3ccccc3CCc3sccc32)CC1.O=C(O)CC(O)C(=O)O`, the cytotoxicity call was “inactive”.

With `C[C@@H]1CN([C@H](C)CO)C(=O)CCCn2cc(nn2)CO[C@H]1CN(C)S(=O)(=O)c1ccc2c(c1)OCCCO2`, the cytotoxicity call is “inactive”.

Turning to `C[C@H](CO)N1C[C@H](C)[C@@H](CN(C)C(=O)Nc2ccc3c(c2)OCO3)Oc2c(NC(=O)c3cnccn3)cccc2C1=O`, the cytotoxicity call is “inactive”.

Turning to `COc1ccc(C#Cc2ccc3c(c2)[C@]2(C(=O)N3)[C@H](C(=O)N3CCc4cc(OC)c(OC)cc4C3)[C@H]3C(=O)O[C@H](c4ccccc4)[C@H](c4ccccc4)N3[C@@H]2c2ccc(O)cc2)cc1`, the cytotoxicity call is “inactive”.

With `O=C(O)CCCN1C(=O)c2cccc3cccc(c23)C1=O`, the cytotoxicity call is “inactive”.

`CC(C)NC(=O)Nc1ccc2c(c1)C(=O)N([C@@H](C)CO)C[C@H](C)[C@@H](CN(C)CC1CCCCC1)OCCCC[C@@H](C)O2`: the cytotoxicity call was “inactive”.

`CCCCCCCCCCCCCCSCC(=O)O`: the cytotoxicity call was “inactive”.

`C[C@H]1CCCCO[C@H](CN(C)C(=O)Cc2ccccc2)[C@@H](C)CN([C@@H](C)CO)C(=O)c2cc(NS(=O)(=O)c3cccs3)ccc2O1`: the cytotoxicity call is “inactive”.

A further experiment has as its system HepG2. Description: cytotoxicity call (relative viability < 0.9). The following applies: 10 µM.
Take `C[C@H]1CCCCO[C@@H](CN(C)C(=O)CCC(F)(F)F)[C@@H](C)CN([C@@H](C)CO)C(=O)c2cc(NS(=O)(=O)c3ccccc3)ccc2O1`: the cytotoxicity call is “inactive”.

As for `C[C@H]1CN([C@@H](C)CO)C(=O)c2cc(NC(=O)Nc3cccc4ccccc34)ccc2O[C@H]1CN(C)S(=O)(=O)c1ccc(F)cc1`, the cytotoxicity call was “inactive”.

With `C[C@H](CO)N1C[C@H](C)[C@H](CN(C)C(=O)Nc2ccc(F)cc2)Oc2ccc(NC(=O)CCCCCC(=O)Nc3ccccc3N)cc2C1=O`, the cytotoxicity call is “inactive”.

Consider `C[C@@H]1CN([C@@H](C)CO)C(=O)c2cc(NC(=O)Nc3ccc4c(c3)OCO4)ccc2O[C@H]1CN(C)S(=O)(=O)c1cn(C)cn1`, for which the cytotoxicity call is “inactive”.

For the compound `Cc1ccc(S(=O)(=O)N(C)C[C@@H]2OCCCC[C@@H](C)Oc3ccc(NC(=O)Nc4ccc(F)cc4)cc3C(=O)N([C@H](C)CO)C[C@H]2C)cc1`, the cytotoxicity call was “active”.

Consider `c1ccc2c(c1)Cn1nnnc1-2`, for which the cytotoxicity call is “inactive”.

In the case of `C[C@H]1CCCCO[C@H](CN(C)C(=O)Nc2ccccc2)[C@@H](C)CN([C@@H](C)CO)C(=O)c2cc(NC(=O)Nc3cccc4ccccc34)ccc2O1`, the cytotoxicity call is “inactive”.

In the case of `CN1C(=O)c2cc(NS(=O)(=O)c3cccc(F)c3)ccc2OC[C@H]2O[C@@H](CC(=O)NCCN3CCCCC3)CC[C@H]21`, the cytotoxicity call is “inactive”.

`CC(C)N1C[C@H](C)[C@@H](CN(C)Cc2ccc(Oc3ccccc3)cc2)Oc2c(NC(=O)c3ccccn3)cccc2C1=O`: the cytotoxicity call is “inactive”.

As for `C[C@@H]1CN([C@H](C)CO)C(=O)c2cc(NS(=O)(=O)c3cccs3)ccc2O[C@@H](C)CCCCO[C@@H]1CN(C)C(=O)Cc1ccccc1`, the cytotoxicity call is “inactive”.

On to `COCCOC(=O)N1C(=O)[C@@]2(c3cc(C#CCNC(N)=O)ccc31)[C@H](c1ccc(O)cc1)N1[C@H](c3ccccc3)[C@H](c3ccccc3)OC(=O)[C@H]1[C@@H]2C(=O)N1CCc2cc(OC)c(OC)cc2C1`, for which the cytotoxicity call is “inactive”.

Turning to `C[C@@H]1CN([C@H](C)CO)S(=O)(=O)c2ccc(C#CC(C)(C)O)cc2O[C@H]1CN(C)C(=O)CN(C)C`, the cytotoxicity call was “inactive”.

As for `C[C@H]1CCCCO[C@@H](CN(C)C(=O)c2ccccc2)[C@@H](C)CN([C@@H](C)CO)C(=O)c2cc(NS(=O)(=O)c3ccccc3)ccc2O1`, the cytotoxicity call was “inactive”.

In the case of `Cc1ccccc1N1CCN(S(=O)(=O)C[C@]23CC[C@H](C[C@@H]2NC(=O)[C@@H](N)CCS(C)(=O)=O)C3(C)C)CC1`, the cytotoxicity call is “inactive”.

Take `Cc1ccc(S(=O)(=O)N(C)C[C@H]2Oc3cc(Br)ccc3S(=O)(=O)N([C@H](C)CO)C[C@H]2C)cc1`: the cytotoxicity call was “inactive”.

With `COc1ccc(S(=O)(=O)N(C)C[C@@H]2OCCCC[C@@H](C)Oc3ccc(NC(=O)Nc4ccc(F)cc4)cc3C(=O)N([C@@H](C)CO)C[C@H]2C)cc1`, the cytotoxicity call is “inactive”.

Consider `Cc1noc(C)c1NC(=O)N(C)C[C@H]1OCCCC[C@@H](C)Oc2ccc(NS(=O)(=O)c3ccc(Cl)cc3)cc2C(=O)N([C@H](C)CO)C[C@@H]1C`, for which the cytotoxicity call was “inactive”.

On to `Cc1ccc(S(=O)(=O)N2C[C@H](O)COC[C@H]3O[C@H](CC(=O)NCc4ccc5c(c4)OCO5)CC[C@@H]32)cc1`, for which the cytotoxicity call is “inactive”.

Consider `COc1ccc2c(=O)c(OC)c(-c3ccccc3)oc2c1`, for which the cytotoxicity call is “inactive”.

Turning to `CO[C@@H]1CN(C)C(=O)c2ccc(NC(=O)CN(C)C)cc2OC[C@@H](C)N(C(=O)C2CCOCC2)C[C@H]1C`, the cytotoxicity call is “inactive”.

As to `CCCN(C)C[C@H]1OCCCC[C@@H](C)Oc2ccc(NC(=O)NC3CCCCC3)cc2C(=O)N([C@@H](C)CO)C[C@H]1C`, the cytotoxicity call was “inactive”.

Consider `Cc1ccc(S(=O)(=O)Nc2ccc3c(c2)C(=O)N([C@@H](C)CO)C[C@@H](C)[C@@H](CN(C)C(=O)Nc2c(C)noc2C)OCCCC[C@H](C)O3)cc1`, for which the cytotoxicity call was “inactive”.

`C[C@@H]1CCCCO[C@@H](CN(C)Cc2ccccc2)[C@@H](C)CN([C@@H](C)CO)C(=O)c2cc(NC(=O)Nc3ccc4c(c3)OCO4)ccc2O1`: the cytotoxicity call was “inactive”.

`C[C@H]1CN([C@@H](C)CO)C(=O)Cc2cc(NC(=O)c3ccncc3)ccc2O[C@H]1CN(C)Cc1ccncc1`: the cytotoxicity call was “inactive”.

With `CCN(CC)c1ccc(N2CC=C[C@@]34O[C@@H]5/C=C\CCCOC(=O)[C@@H]5[C@H]3C(=O)N(CCCCCCO)[C@@H]4C2=O)cc1`, the cytotoxicity call is “inactive”.

With `C[C@H](CO)N1C[C@H](C)[C@@H](CN(C)C(=O)Nc2ccc3c(c2)OCO3)Oc2ccc(NS(C)(=O)=O)cc2C1=O`, the cytotoxicity call was “inactive”.

As to `C[C@H]1CN([C@@H](C)CO)C(=O)Cc2cc(NS(=O)(=O)c3ccc(Cl)cc3)ccc2O[C@@H]1CN(C)Cc1ccc(Oc2ccccc2)cc1`, the cytotoxicity call is “active”.

For `Cc1ccc(S(=O)(=O)N(C)C[C@H]2Oc3c(NC(=O)Nc4ccc(C(F)(F)F)cc4)cccc3C(=O)N([C@@H](C)CO)C[C@@H]2C)cc1`, the cytotoxicity call is “inactive”.

Take `C=CCOC(=O)[C@@H]1[C@H]2C(=O)O[C@H](c3ccccc3)[C@H](c3ccccc3)N2[C@H](c2ccc(OCCOC(=O)[C@@H]3C[C@@H]4C(=O)N[C@@H](CCCCNC(C)=O)C(=O)N4[C@@H]3c3ccc(O)cc3)cc2)[C@@]12C(=O)Nc1ccc(I)cc12`: the cytotoxicity call was “inactive”.

With `O=C(NC1CCC1)[C@H]1[C@H](CO)[C@H]2Cn3c(cccc3=O)[C@H]2N1CC1CCOCC1`, the cytotoxicity call was “inactive”.

Consider `C[C@@H]1CN([C@H](C)CO)C(=O)c2cc(NS(=O)(=O)c3ccc(Cl)cc3)ccc2O[C@@H]1CN(C)Cc1ccc(Cl)c(Cl)c1`, for which the cytotoxicity call is “active”.

For the compound `O=C(C[C@@H]1C[C@@H]2c3cc(NC(=O)NC4CCCC4)ccc3O[C@@H]2[C@H](CO)O1)NCc1ccc(-c2ccccc2)cc1`, the cytotoxicity call was “inactive”.

Take `CN1CCC(=C2c3ccccc3CCc3sccc32)CC1.O=C(O)CC(O)C(=O)O`: the cytotoxicity call was “inactive”.

As for `C[C@@H]1CN([C@H](C)CO)C(=O)CCCn2cc(nn2)CO[C@H]1CN(C)S(=O)(=O)c1ccc2c(c1)OCCCO2`, the cytotoxicity call is “inactive”.

For the compound `C[C@H](CO)N1C[C@H](C)[C@@H](CN(C)C(=O)Nc2ccc3c(c2)OCO3)Oc2c(NC(=O)c3cnccn3)cccc2C1=O`, the cytotoxicity call was “inactive”.

As to `COc1ccc(C#Cc2ccc3c(c2)[C@]2(C(=O)N3)[C@H](C(=O)N3CCc4cc(OC)c(OC)cc4C3)[C@H]3C(=O)O[C@H](c4ccccc4)[C@H](c4ccccc4)N3[C@@H]2c2ccc(O)cc2)cc1`, the cytotoxicity call is “inactive”.

For the compound `O=C(O)CCCN1C(=O)c2cccc3cccc(c23)C1=O`, the cytotoxicity call was “inactive”.

In the case of `CC(C)NC(=O)Nc1ccc2c(c1)C(=O)N([C@@H](C)CO)C[C@H](C)[C@@H](CN(C)CC1CCCCC1)OCCCC[C@@H](C)O2`, the cytotoxicity call is “inactive”.

For the compound `CCCCCCCCCCCCCCSCC(=O)O`, the cytotoxicity call was “inactive”.

For the compound `C[C@H]1CCCCO[C@H](CN(C)C(=O)Cc2ccccc2)[C@@H](C)CN([C@@H](C)CO)C(=O)c2cc(NS(=O)(=O)c3cccs3)ccc2O1`, the cytotoxicity call is “inactive”.

The record behind these values is the antibiotic and cytotoxicity screens of Wong et al. (2023).
